Out of some 52,000 compounds screened, about 4,300 (8.3%) were called active. No stated cut-off is given here; in the data, active means survival mostly below about 52% (no sharp cut-off); inactive means mostly above about 56%. The list shows a part of the results.

The subject of this experiment is DeltatarO mutant. Nature of the experiment: S. aureus survival, RN4220 and DeltatarO strains – OD600, teichoic acid synthesis inhibitors, primary screen (AID 463173). Particulars: S. aureus RN4220 wild type/DeltatarO growth, OD600, 18 h, stronger effect = lower value, screened at 18.75 µg/mL (by protocol).
As to `CCCCNc1nc(Oc2ccc(OCCC)nn2)nc(N(C)C)n1`, the survival was inactive: 84%.

For `O=C(CCSCc1ccccc1F)N1CCN(c2ccc(Cl)cc2)CC1`, the survival was inactive: 81%. As to `Cc1nn(-c2ccc(N3CCCC3)nn2)c(C)c1CCC(=O)NCc1ccccc1F`, the survival is inactive: 82%.

Regarding `COc1ccc(-c2nc3ccccc3o2)cc1NC(=O)CSc1ccc(Cl)cc1`, the survival was inactive: 72%. Take `CCCn1c(=O)c2sccc2n2c(CCCC(=O)Nc3ccccc3OCC)nnc12`: the survival is inactive: 72%.

On to `Cc1ccc(CN(C(=O)COc2ccc(C(C)C)cc2)C2CCS(=O)(=O)C2)o1` (stereo unspecified), for which the survival was inactive: 87%.

As for `COc1ccc(CC(=O)N2CC(=O)Nc3ccc(Br)cc3C2c2ccc(F)cc2)cc1` (stereo unspecified), the survival was active: 30%. Turning to `Cc1ccccc1C(=O)Nc1nnc(S(=O)(=O)N(C)Cc2ccc(Cl)cc2)s1`, the survival was inactive: 102%. As for `Cc1ccc(CNC(=O)c2nc(-c3ccc(Cl)cc3)n3c2CCCCC3)cc1`, the survival is inactive: 89%. In the case of `N#Cc1ccccc1Cn1c(=O)n(CCCCC(=O)NCc2ccc3c(c2)OCO3)c(=O)c2ccccc21`, the survival is inactive: 94%. As to `O=C(Cc1ccc(F)cc1)N1CCC(c2nc3c(nnn3Cc3ccc(F)cc3)c(=O)[nH]2)CC1`, the survival was inactive: 66%. With `COc1ccc(-n2cccc2C=C(C#N)C#N)cc1`, the survival was inactive: 97%. Take `COc1ccc(OCC(=O)Nc2ccc(O)c(-c3nc4ccccc4s3)c2)cc1`: the survival is active: 43%. Turning to `O=C(NCCSCc1ccccc1Cl)C1CCN(S(=O)(=O)Cc2ccccc2)CC1`, the survival was inactive: 62%.

Consider `C=CCNc1ccc(C(=O)O)cc1`, for which the survival is inactive: 77%. For `COc1ccc(NC(=O)CSc2nnc(NC(=O)Nc3ccccc3)s2)c(OC)c1`, the survival was active: 47%. Regarding `CCc1ccc(NC(=O)CSc2nc3ccccc3nc2Cc2ccccc2OC)cc1`, the survival is inactive: 70%. As for `Cc1cccc(OCC(=O)Nc2ccc(-c3nc4cc(C)ccc4o3)c(O)c2)c1`, the survival was inactive: 68%. For `COc1ccc2cc(CN(Cc3cccnc3)Cc3nnnn3Cc3ccc(F)cc3)c(=O)[nH]c2c1`, the survival was inactive: 96%. On to `CCC1CN(C(=O)N2CCC(C(=O)NCCC3=CCCCC3)CC2)c2cc(C)ccc2O1` (stereo unspecified), for which the survival is inactive: 77%. As to `Cc1ccc(OCC(=O)Nc2ccc(Cl)c(-c3nc4ccccc4[nH]3)c2)cc1C`, the survival is active: 43%. Take `COc1ccc(S(=O)(=O)N(CC(=O)N(C)Cc2ccccc2)c2ccc(Cl)cc2)cc1`: the survival is inactive: 57%. For the compound `COc1ccc(CNC(=O)CSc2nc3cc4c(cc3cc2C#N)OCCO4)cc1`, the survival is inactive: 96%. Consider `Cn1cc(C(=O)NCc2ccc(Cl)cc2)c(=O)c2cc(S(=O)(=O)N3CCCCCC3)ccc21`, for which the survival was inactive: 59%.

Take `Cc1cc(C)cc(NC(=O)N2CCN3CCCCC3C2)c1` (stereo unspecified): the survival is inactive: 124%. For the compound `CCOC(=O)c1ccc(NC(=O)c2c(NCc3sccc3C)sc3c2CCCCC3)cc1`, the survival was inactive: 78%. In the case of `CC1CCCN(c2cc3c(cc2F)c(=O)c(S(=O)(=O)c2cccc(Cl)c2)cn3C)C1` (stereo unspecified), the survival was inactive: 67%. The result for `O=C1C2C(C(=O)N1/N=C/c1ccc(N3CCCCC3)o1)C1C=CC2C12CC2` (stereo unspecified) reads inactive: 73%; that for `Cc1cc(C(=O)NCCc2ccc(Cl)cc2)c2c(C)nn(-c3cccc(F)c3)c2n1`, inactive: 87%; that for `O=C(Nc1ccccc1)c1ccc2c(c1)OCCO2`, inactive: 89%.

As for `COC(=O)c1cc2sc(Cl)cc2n1Cc1nc(-c2ccc(OC)cc2)oc1C`, the survival is inactive: 72%. The result for `COc1ccc(N(CC(=O)NCCc2cccc(C)c2)S(=O)(=O)c2c(C)noc2C)cc1` reads inactive: 61%; that for `COc1cccc(C(=O)Nc2cc3cc(OC)ccc3oc2=O)c1`, inactive: 83%; that for `COc1ccccc1-c1nnc(SCC(=O)OC(C)C)n1-c1ccccc1`, inactive: 92%. Regarding `COC(=O)c1ccc(NC(=O)Cn2nc(C(=O)Nc3ccc(C)cc3)ccc2=O)cc1`, the survival is inactive: 78%. For the compound `Cc1ccc(NC(=O)Cn2c(CCC(=O)O)ccc2-c2ccc(Cl)cc2)cc1`, the survival is inactive: 53%.

`COc1ccc(-c2[nH]c3c(c2-c2c(-n4cccc4)n(C)c(=O)n(C)c2=O)c(=O)n(C)c(=O)n3C)cc1`: the survival was inactive: 74%.

`CCCCSCCCNC(=O)CN1C(=O)COc2ccc(S(=O)(=O)N3CCC(C)CC3)cc21`: the survival was inactive: 111%. For `Cn1cc(C(F)(F)F)ccc1=S`, the survival was inactive: 96%. As to `O=C(Nc1nnc(S(=O)(=O)N2CCN(c3ccc(F)cc3)CC2)s1)c1ccc(Cl)cc1`, the survival was inactive: 57%. As to `COc1ccc(C)cc1NC(=O)C(=O)NCC1(c2ccccc2)CCCC1`, the survival is inactive: 85%. As for `Cc1ccc(C(=O)Nc2ccc(C(=O)OCc3cc(=O)n4ccsc4n3)cc2)cc1`, the survival was inactive: 72%. As to `CC(C)(C)c1ccc(C2NC(=O)c3n[nH]c(-c4cccs4)c32)cc1` (stereo unspecified), the survival is inactive: 73%. For `CCOc1ccc2c(c1)c(=O)c(C(=O)c1ccc(C)cc1)cn2Cc1ccccc1OC`, the survival is inactive: 71%. With `CC(=O)c1cccc(NC(=O)N2CCC(CN3CCCCC3)CC2)c1`, the survival is inactive: 99%. The result for `CC(C)c1ccc(NC(=O)Cn2c(=O)n(Cc3nc(-c4ccccc4)no3)c(=O)c3cc4c(cc32)OCO4)cc1` reads inactive: 91%; that for `CCOc1ccccc1NC(=O)CN1C(=O)C2(SCC(=O)N2c2ccc(C)cc2)c2ccccc21` (stereo unspecified), inactive: 67%; that for `CCS(=O)(=O)c1ncc(Cl)c(C(=O)N(Cc2ccccc2)c2ccc(OC)cc2)n1`, active: 36%. As to `Cc1cc(C)c(CN2C(=O)c3ccccc3S(=O)(=O)c3ccc(C(=O)OCC4CCCO4)cc32)c(C)c1` (stereo unspecified), the survival is inactive: 89%.

In the case of `Cc1ccccc1C(c1c(C)n(C)n(-c2ccccc2)c1=O)c1c(C)n(C)n(-c2ccccc2)c1=O`, the survival was inactive: 77%. As for `CC(C)CCNc1ncnc2c1cnn2-c1cccc(Cl)c1`, the figure is inactive: 103%. Consider `COCCNC(=O)C(=O)NCC(c1cccnc1)N1CCN(c2ccccc2)CC1` (stereo unspecified), for which the survival is active: 54%. Turning to `Cc1ccc(-n2c(SCC(=O)Nc3c(C)cccc3C)nc(O)c(C)c2=O)cc1`, the survival is inactive: 88%.

As for `CCC1CN(C(=O)N2CCC(C(=O)NCc3ccco3)CC2)c2ccccc2O1` (stereo unspecified), the survival was inactive: 66%.

As for `Cc1ccccc1OCc1nnc(SCC(=O)N(Cc2ccccc2)C(C)(C)C)o1`, the survival is active: 59%. With `CCCSc1nnc2n(-c3cccc(C)c3)c(=O)c3c4c(sc3n12)CCCC4`, the survival was active: 5%. The result for `Cc1ccc(C)c(NC(=O)Cn2c(=O)n(Cc3ccc4c(c3)OCO4)c(=O)c3ccccc32)c1` reads inactive: 87%. For `Cc1cccc(C(=O)OCc2cc(=O)n3nc(-c4cccs4)sc3n2)c1`, the survival is inactive: 101%. Take `Cc1ccc(-n2ncc(C(=O)NCCCN3CCN(C)CC3)c2C2CCN(C(=O)OC(C)(C)C)CC2)c(C)c1`: the survival is inactive: 105%. The result for `CC(C)(C)OC(=O)N1CCC(c2c(C(=O)N3CCCCC3)cnn2-c2ccc(F)cc2F)CC1` reads inactive: 67%.

With `Cn1c(Oc2ccccc2)nc2c1c(=O)n(Cc1ccc(Cl)cc1Cl)c(=O)n2C`, the survival is inactive: 71%.

In the case of `CCc1ccc(NC(=O)c2ccc(F)c(S(=O)(=O)NCCc3ccc(OC)c(OC)c3)c2)cc1`, the survival is inactive: 72%. Consider `CCCN(Cc1cccs1)C(=O)Nc1ccc(F)c(Cl)c1`, for which the survival was inactive: 58%. Consider `COc1cc(Cl)c(NC(=O)C(NS(=O)(=O)c2cccs2)C(C)C)c(OC)c1` (stereo unspecified), for which the survival is inactive: 75%.

With `COc1ccc(OC)c(Nc2c3c(nc4ccccc24)CCC3)c1`, the survival is inactive: 94%. With `CS(=O)(=O)N1CCc2cc(C(=O)Nc3ccc(S(N)(=O)=O)cc3)ccc21`, the survival is inactive: 48%. With `O=C1c2ccccc2C(=O)N1c1ccccc1S(=O)C(F)(F)F` (stereo unspecified), the survival was inactive: 72%. As for `COc1cccc(Nc2sc(C(=O)c3ccc(Cl)cc3)c(N)c2C(=O)NCCc2ccc(OC)c(OC)c2)c1`, the figure is inactive: 101%. As for `COc1ccc(Cl)cc1NC(=O)Cn1cnc2sc(C)c(S(=O)(=O)N3CCN(c4ccccc4OC)CC3)c2c1=O`, the survival was inactive: 79%. Take `Cc1cc2cc(CN(Cc3ccccc3)C(=O)N(C)C)c3nnnn3c2cc1C`: the survival was inactive: 84%.

With `O=C(CC1Nc2cccc3cccc(c23)NC1=O)Nc1ccc(F)cc1` (stereo unspecified), the survival was inactive: 111%. `O=C(CCn1cnc2onc(-c3ccc(F)cc3)c2c1=O)N1CCN(c2ccccc2F)CC1`: the survival was active: -4%. For `CCOC(=O)C1CCCN(C(=O)c2ccc(NC(=O)c3nsc4ccccc34)cc2)C1` (stereo unspecified), the survival is inactive: 90%. As for `Cc1ccc2c(CC(=O)N(Cc3cccc(Cl)c3)C3CCS(=O)(=O)C3)coc2c1` (stereo unspecified), the figure is inactive: 68%; as for `Cc1ccc(C(=O)CC2(O)C(=O)N(Cc3ccccc3)c3ccccc32)c(C)c1` (stereo unspecified), active: 41%; as for `CNS(=O)(=O)c1cn(CC(=O)N2CCN(c3ccccc3OC)CC2)cc1S(=O)(=O)NC`, inactive: 72%. Regarding `COC(=O)c1ccccc1NC(=O)Cn1c(=O)cc(C)c2c(C)nn(-c3cccc(Cl)c3C)c21`, the survival is inactive: 86%.

As for `O=C(Nc1nnc(S(=O)(=O)N2CCc3ccccc32)s1)c1ccccc1Cl`, the survival was active: 20%. For `Cc1c2cnn(CC(=O)N3CCN(c4ccc(F)cc4)CC3)c(=O)c2c(C)n1Cc1ccccc1F`, the survival is inactive: 61%. In the case of `Cc1cc(C)cc(-n2ccnc2SCC(=O)Nc2nc3ccc(C)cc3s2)c1`, the survival was active: 52%. Regarding `COc1ccc(-c2nc(Cn3c(=O)cc(C)c4c(C)nn(-c5ccccc5)c43)c(C)o2)c(OC)c1`, the survival was inactive: 94%. As for `CN(C)c1ccc(CNC(=O)Cn2ccc3cc(S(=O)(=O)N4CCCCCC4)ccc32)cc1`, the survival is inactive: 88%. Turning to `Cc1ccc2c(c1)C(c1ccc(F)cc1)N(C(=O)c1cccc(C(F)(F)F)c1)CC(=O)N2` (stereo unspecified), the survival was inactive: 141%. For `COc1cccc(N2CCN(Cc3cc(=O)oc4cc(C)ccc34)CC2)c1`, the survival is inactive: 70%.

Regarding `N#Cc1cccc(NC(=O)CCNS(=O)(=O)c2ccc3c(c2)CCN3C(=O)C2CC2)c1`, the survival was inactive: 82%. The result for `COc1ccc2[nH]c(=O)c(CN(Cc3cccnc3)C(=O)Nc3ccccc3)cc2c1` reads inactive: 93%.

For the origin of these results see PubChem BioAssay AID463173 (ICCB-Longwood Screening Facility, Harvard Medical School, 2010).
